Measured values taken from PubChem BioAssay AID485344 (National Center for Advancing Translational Sciences (NCATS), 2010).
Several values for one entry are separate records, joined by “and”; a condition that tells them apart may be missing. Identical values can stand only once. About 6,900 (2%) of roughly 340,000 compounds were called active. No stated cut-off is given here; in the data, active means inhibition above about 30%; inactive means below that, where a call was filed. The entries are a selection whose mix differs from that of the whole data set. Where no call is shown, the source filed none.

Each compound was assayed against D(2) dopamine receptor (Homo sapiens) (UniProt P14416) (assay: HTS Assay for Allosteric Antagonists of the Human D2 Dopamine Receptor: Primary Screen for Antagonists). Conditions: HEK293 TREx D2 cells, calcium flux, dopamine EC80; at 10 µM; stronger effect = higher value.
Summary of the method: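 In this primary screen, negative modulation is detected by tracking calcium flux after an EC80 dopamine challenge in inducible HEK293 T-REx D2 cells preexposed to test compound for 180 s.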
Further: 0% is about no effect.

Sequence of UniProt P14416 (P14416 whole entry, looked up): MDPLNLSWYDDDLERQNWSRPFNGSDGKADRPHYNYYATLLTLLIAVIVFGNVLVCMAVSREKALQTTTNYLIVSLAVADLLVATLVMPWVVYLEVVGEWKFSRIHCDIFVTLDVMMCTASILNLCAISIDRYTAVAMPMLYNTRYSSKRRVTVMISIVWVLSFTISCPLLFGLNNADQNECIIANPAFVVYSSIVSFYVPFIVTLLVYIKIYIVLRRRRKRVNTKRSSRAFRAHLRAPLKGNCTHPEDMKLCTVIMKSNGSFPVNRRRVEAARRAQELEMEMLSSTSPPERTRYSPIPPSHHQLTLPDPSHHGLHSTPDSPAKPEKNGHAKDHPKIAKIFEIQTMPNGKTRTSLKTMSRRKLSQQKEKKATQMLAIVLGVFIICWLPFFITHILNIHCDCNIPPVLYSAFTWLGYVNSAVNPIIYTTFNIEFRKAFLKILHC

| Compound | inhibition |
| --- | --- |
| COc1cc(NC(=O)Cn2c(SCc3ccc(F)cc3)nc3cccnc32)cc(OC)c1 | -2.25% |
| Cc1ccc(CCNC(=O)CCc2cn(Cc3ccccc3C)c3ccccc23)cc1 | -2.63% |
| CCc1ccc(-n2nnc(-c3nc(-c4ccccc4)no3)c2C)cc1 | 3.68% |
| COc1ccc(CCNC(=O)c2ccc3c(c2)N(Cc2cccc(C)c2)C(=O)c2ccccc2S3(=O)=O)cc1OC | 7.26% |
| CCOc1ccccc1-c1nc(-c2ccc(-c3ccccc3)nc2OCC)no1 | -7.05% |
| O=C(Nc1ccccc1)Nc1ccccc1Br | active: 41.6% |
| COc1ccccc1NC(=O)CSc1nnc(-c2cccc(Cl)c2)o1 | -7.22% |
| CCn1cc(S(=O)(=O)c2cc(C)cc(C)c2)c(=O)c2cc(F)c(N3CCOCC3)cc21 | 9.32% |
| O=C(CCCN1CC=C(n2c(=O)[nH]c3ccccc32)CC1)c1ccc(F)cc1 | active: 101% and active: 81.3% |
| COc1ccccc1Nc1c2c(nc3ccc(NC(=O)/C=C/c4cccc(OC)c4OC)cc13)CCCC2 | 13.9% |
| Cc1ccc(Nc2c3c(nc4nncn24)CCC3)cc1 | 3.38% |
| COc1ccc2nc(N(Cc3cccnc3)C(=O)CCc3ccccc3)sc2c1 | -21.8% |
| COc1cc(OC)c(NC(c2nnc(-c3ccccc3)o2)c2ccc(F)cc2Cl)cc1Cl (configuration not stated) | 0.0884% |
| CCc1ccccc1OCCCCN1CCCC1 | active: 46.5% |
| COc1ccc(CC(=O)Nc2ccc3nc(Nc4cccc(Cl)c4)cc(C)c3c2)cc1OC | 4.86% |
| CCc1cccc(CC)c1-n1c(-c2cccnc2)n[nH]c1=S | active: 66.4% |
| Cc1ccc(S(=O)(=O)N2CCC(Oc3ccc(-n4cnnn4)cc3)CC2)cc1 | 2.46% |
| COc1cc2c(cc1OC)C1=C(C#N)CN(C3CCCCC3)CN1CC2 | active: 40.2% |
| COc1ccccc1-n1cc(-c2ccc(C)cc2)nc1S(=O)(=O)CC(=O)Nc1ccccc1C(F)(F)F | -2.61% |
| COC(=O)c1sc(-c2ccccc2)cc1NC(=O)c1cccc(F)c1 | -8.58% |
| C=CCN=c1scc(-c2ccco2)n1/N=C/c1ccc(O)c(O)c1O | active: 88.1% |

| Compound | inhibition |
| --- | --- |
| O=C(NCc1ccc(F)cc1)C1CCN(C(=O)c2ccc(-n3ccc4ccccc43)s2)CC1 | -6.39% |
| Cc1ccc(CN2CCCn3nc(C(=O)NCCC(C)C)cc3C2=O)cc1 | 15% |
| COC(=O)c1ccc(NC(=O)C2(S(=O)(=O)c3ccc(C)cc3)CC2)cc1 | 13.6% |
| O=C(NCCc1ccccc1)c1ccc(CSc2nc3cccnc3n2Cc2ccc(F)cc2)cc1 | 5.13% |
| Cc1cc(C)nc(SCCCNCc2ccc(Br)cc2)n1 | active: 58.9% |
| O=C(NC(=O)c1cccc(F)c1)Nc1ccc(-c2cc(C(F)(F)F)nn2-c2ccccc2)cc1 | -16.6% |
| CC(=O)c1ccc(NC(=O)C2CCC(CNS(=O)(=O)c3ccc(Br)s3)CC2)cc1 (configuration not stated) | 3.46% |
| Cc1nc(-c2ccc(C)c(N3CCN(C(=O)Nc4ccccc4C(F)(F)F)CC3)c2)no1 | 25.5% |
| CCN(CC)CCNC(=O)c1cc(S(C)(=O)=O)ccc1OC | active: 99% |
| O=C(NCCCc1ccccc1)c1nn(-c2ccccc2F)nc1CO | 3.67% |
| COc1ccccc1CNC(=O)C1CCN(c2nc3ccc(Cl)cc3[nH]2)CC1 | 0.624% |
| CCCS(=O)(=O)c1nc(S(=O)(=O)c2ccc(C)cc2)c(N2CCN(CC)CC2)s1 | active: 67.4% |
| CCn1cc(/C=C(\NC(=O)c2ccc(OC)cc2)C(=O)NCCCn2ccnc2)c2ccccc21 | 9.57% |
| CCc1nn(CC(=O)NCCc2ccc(OC)cc2OC)c(=O)c2cc3occc3n12 | 6.77% |
| COc1cc2c(=O)n(CCC(=O)NCC3CCCO3)c(=O)n(CC(=O)Nc3ccccc3C)c2cc1OC (configuration not stated) | -13.4% |
| Oc1ccc(CN2CCN(c3ncccn3)CC2)cc1 | active: 84.3% |
| CCc1ccc(C(=O)c2cn(CC(=O)Nc3ccc4c(c3)OCCO4)c3ccc(F)cc3c2=O)cc1 | 10.2% |
| Cc1ccc(NCc2cccn2-c2nnc(N3CCC(C(=O)NCCc4ccc(Cl)cc4)CC3)s2)cc1 | 2.41% |
| CCCCN(CC)CCCNC(=O)c1c(C)oc2ncnc(N3CCOCC3)c12 | -8.63% |
| COc1ccc(-n2c(C)nc3c(cnn3-c3ccc(F)cc3)c2=O)cc1 | -7.88% |
| CN1CCCC(CC2Oc3ccccc3Sc3ccccc32)C1 (configuration not stated) | active: 95.7% |

| Compound | inhibition |
| --- | --- |
| CCc1nn2c(=O)cc(COC(=O)c3cccc(NC(=O)CCc4ccccc4)c3)nc2s1 | 13.7% |
| COc1ccc(-n2ncc3c(NCCCOC(C)C)ncnc32)cc1 | 5.7% |
| CCc1nn(CC(=O)NC2CC2)c(=O)c2cc3c(OC)cccc3n12 | 21.8% |
| CCCCNC(=O)C1CCCN(S(=O)(=O)CCC)C1 (configuration not stated) | 22.7% |
| CCOc1ccccc1C1CC(=O)Nc2c1c(=O)n(C)c1ncnn21 (configuration not stated) | 13.4% |
| O=C(CCc1nc(CN2CCN(S(=O)(=O)c3ccc(Br)cc3)CC2)no1)N1CCCCC1 | -2.36% |
| COc1cc2cc(CNc3ccccc3)c(=O)n(CC(=O)Nc3cccc(Cl)c3C)c2cc1OC | 9.48% |
| COc1cc(NC(=O)Cn2c(=O)n(CC3CCC(C(=O)NCCc4ccccc4)CC3)c(=O)c3ccccc32)cc(OC)c1 (configuration not stated) | 8% |
| Cc1c(C(=O)NCc2ccc(Cl)cc2)oc2ccc3c(c12)C(=O)CC(C)(C)O3 | 6.84% |
| CCCCOc1ccc(CNC(=O)c2cccc(NC(=O)N3CCSc4ncccc43)c2)cc1 | 0.86% |
| Cc1ccc(CNC(=O)CSc2ncc3c(n2)-c2cc(Cl)ccc2N(C)S3(=O)=O)cc1 | 10.4% |
| CCCCn1c(N)nc2ccccc21 | active: 30.7% |
| COc1cccc(Nc2nc(=O)[nH]nc2C)c1 | active: 34.2% |
| O=C(NCc1cccc(Cl)c1)c1c2c(nc3ccccc13)C(=O)N(C1CCCCC1)C2 | -6.77% |
| CC(=O)Nc1cccc(NC(=O)c2cc3c(=O)n4cccc(C)c4nc3n2C)c1 | 19% |
| COc1cc(NC(=O)c2ccc(C)c(Cl)c2)ccc1NC(=O)c1cc2ccccc2o1 | -3.81% |
| CCCn1cc(S(=O)(=O)c2ccc(C)cc2)c(=O)c2cc(F)c(N3CCCC3)cc21 | -10.2% |
| CCOc1ccccc1Nc1ncnc2c1cnn2-c1ccc(C)cc1 | -15.8% |
| COc1ccc(CC(=O)Nc2nc3c(s2)CC(C)CC3)cc1 (configuration not stated) | -7.94% |
| Cc1ccc(NC(=O)C2CCCN(S(=O)(=O)c3ccc4[nH]c(=O)ccc4c3)C2)cc1Cl (configuration not stated) | -2.39% |
